The text below walks through data of article PMC3605390, “Characterisation of ATP-Dependent Mur Ligases Involved in the Biogenesis of Cell Wall Peptidoglycan in Mycobacterium tuberculosis” (PLoS ONE, 2013).

In test [1] the target is T1, MurF synthetase (Rv2157c) of Mycobacterium tuberculosis, M-PFC fusion (Mycobacterium tuberculosis H37Rv) (UniProt P9WJL1).
T1 sequence: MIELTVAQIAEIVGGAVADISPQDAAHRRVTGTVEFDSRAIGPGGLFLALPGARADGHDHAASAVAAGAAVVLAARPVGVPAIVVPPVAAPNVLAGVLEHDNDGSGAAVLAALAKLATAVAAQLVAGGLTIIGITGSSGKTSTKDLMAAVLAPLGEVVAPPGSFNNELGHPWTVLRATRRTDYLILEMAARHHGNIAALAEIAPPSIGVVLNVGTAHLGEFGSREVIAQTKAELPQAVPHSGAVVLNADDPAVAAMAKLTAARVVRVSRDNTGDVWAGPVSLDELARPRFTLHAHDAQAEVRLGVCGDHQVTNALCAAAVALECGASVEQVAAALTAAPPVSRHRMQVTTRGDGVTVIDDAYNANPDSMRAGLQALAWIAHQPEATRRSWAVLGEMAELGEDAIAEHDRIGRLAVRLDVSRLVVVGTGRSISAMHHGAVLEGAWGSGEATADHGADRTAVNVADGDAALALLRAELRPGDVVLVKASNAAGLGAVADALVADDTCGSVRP
Put plainly: split reporter.

For test [2], the target named is T2, MurE synthetase (Rv2158c) of Mycobacterium tuberculosis, M-PFC fusion (Mycobacterium tuberculosis H37Rv) (UniProt P9WJL3).
T2 sequence: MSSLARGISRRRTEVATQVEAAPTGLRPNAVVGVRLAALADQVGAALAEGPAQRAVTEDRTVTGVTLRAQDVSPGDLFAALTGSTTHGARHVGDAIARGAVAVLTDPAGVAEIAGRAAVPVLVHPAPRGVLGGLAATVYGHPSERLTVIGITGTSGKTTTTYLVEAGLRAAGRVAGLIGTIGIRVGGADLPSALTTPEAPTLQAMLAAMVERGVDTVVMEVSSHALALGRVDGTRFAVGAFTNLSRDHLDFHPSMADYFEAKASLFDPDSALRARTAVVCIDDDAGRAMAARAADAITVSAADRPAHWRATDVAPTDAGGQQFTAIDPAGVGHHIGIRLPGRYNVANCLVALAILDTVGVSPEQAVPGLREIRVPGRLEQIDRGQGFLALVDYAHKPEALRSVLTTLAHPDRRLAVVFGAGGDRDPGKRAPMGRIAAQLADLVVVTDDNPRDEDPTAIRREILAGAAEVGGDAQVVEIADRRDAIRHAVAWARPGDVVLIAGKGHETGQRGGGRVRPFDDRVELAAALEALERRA
Put plainly: split reporter.

The target in test [3] is T3, arylamine N-acetyltransferase/Nat (Rv3566) of Mycobacterium tuberculosis, M-PFC fusion (Mycobacterium tuberculosis H37Rv) (UniProt P9WJI5).
T3 sequence: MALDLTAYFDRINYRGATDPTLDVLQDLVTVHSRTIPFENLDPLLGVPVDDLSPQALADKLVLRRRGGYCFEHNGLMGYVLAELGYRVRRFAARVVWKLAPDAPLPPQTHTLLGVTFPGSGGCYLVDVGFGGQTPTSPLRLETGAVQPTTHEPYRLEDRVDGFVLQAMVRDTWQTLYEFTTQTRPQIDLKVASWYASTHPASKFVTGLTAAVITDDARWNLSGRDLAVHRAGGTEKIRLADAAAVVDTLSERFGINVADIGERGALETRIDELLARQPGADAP
Nature of the test: split reporter.

Test [4] has as its target T4, MurC synthetase (Rv2152c) of Mycobacterium tuberculosis, M-PFC fusion (Mycobacterium tuberculosis H37Rv) (UniProt P9WJL7).
T4 sequence: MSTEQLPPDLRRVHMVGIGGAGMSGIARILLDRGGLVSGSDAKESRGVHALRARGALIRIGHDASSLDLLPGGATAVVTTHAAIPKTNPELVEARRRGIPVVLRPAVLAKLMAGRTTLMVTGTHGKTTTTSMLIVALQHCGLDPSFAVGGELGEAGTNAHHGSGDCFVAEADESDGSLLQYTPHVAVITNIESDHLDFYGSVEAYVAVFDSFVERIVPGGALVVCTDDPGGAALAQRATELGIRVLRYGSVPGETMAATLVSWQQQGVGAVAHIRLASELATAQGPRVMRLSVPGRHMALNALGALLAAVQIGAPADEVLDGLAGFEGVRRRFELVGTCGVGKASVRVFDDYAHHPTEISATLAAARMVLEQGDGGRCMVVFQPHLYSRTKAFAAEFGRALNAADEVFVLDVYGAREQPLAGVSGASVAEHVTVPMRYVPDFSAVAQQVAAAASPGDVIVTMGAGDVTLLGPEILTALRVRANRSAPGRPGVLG
Put plainly: split reporter.

Test [5] concerns the target T5, MurD synthetase (Rv2155c) of Mycobacterium tuberculosis, M-PFC fusion (Mycobacterium tuberculosis H37Rv) (UniProt P9WJL5).
T5 sequence: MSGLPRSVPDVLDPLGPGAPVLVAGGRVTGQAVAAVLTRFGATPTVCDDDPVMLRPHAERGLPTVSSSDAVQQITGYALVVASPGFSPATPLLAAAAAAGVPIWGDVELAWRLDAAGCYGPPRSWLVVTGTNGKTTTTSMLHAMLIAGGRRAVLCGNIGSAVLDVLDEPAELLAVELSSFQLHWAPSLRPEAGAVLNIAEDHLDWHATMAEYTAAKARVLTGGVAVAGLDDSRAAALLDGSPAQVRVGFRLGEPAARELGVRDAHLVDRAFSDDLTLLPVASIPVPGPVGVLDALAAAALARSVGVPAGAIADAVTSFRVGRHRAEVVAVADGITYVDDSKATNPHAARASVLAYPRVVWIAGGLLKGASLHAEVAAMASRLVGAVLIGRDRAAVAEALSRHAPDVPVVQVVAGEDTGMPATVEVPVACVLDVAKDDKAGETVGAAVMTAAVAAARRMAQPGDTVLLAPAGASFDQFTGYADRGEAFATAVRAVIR
Put plainly: split reporter.

For test [6], the target named is purified recombinant M. tuberculosis MurC synthetase (Mycobacterium tuberculosis H37Rv) (UniProt P9WJL7). Put plainly: SEC; both purified.
Test [7] concerns the target T1, MurF synthetase (Rv2157c) of Mycobacterium tuberculosis, M-PFC fusion (Mycobacterium tuberculosis H37Rv). Put plainly: split reporter. This is another data set of the same source.
In test [8] the target is T2, MurE synthetase (Rv2158c) of Mycobacterium tuberculosis, M-PFC fusion (Mycobacterium tuberculosis H37Rv). Nature of the test: split reporter. The source holds these as a separate data set.
In test [9] the target is T3, arylamine N-acetyltransferase/Nat (Rv3566) of Mycobacterium tuberculosis, M-PFC fusion (Mycobacterium tuberculosis H37Rv). Put plainly: split reporter. This is another data set of the same source.
The target in test [10] is T4, MurC synthetase (Rv2152c) of Mycobacterium tuberculosis, M-PFC fusion (Mycobacterium tuberculosis H37Rv). Nature of the test: split reporter. The source holds these as a separate data set.
The target of test [11] is T5, MurD synthetase (Rv2155c) of Mycobacterium tuberculosis, M-PFC fusion (Mycobacterium tuberculosis H37Rv). Put plainly: split reporter. The source holds these as a separate data set.
The target of test [12] is purified recombinant M. tuberculosis MurD synthetase (Mycobacterium tuberculosis) (UniProt P9WJL5). Nature of the test: SEC; both purified. On the technique in general: SEC sorts molecules by how far they enter the pores of the column.

Like-named read-outs stand apart in the source and are kept apart here. No constants are given. Whether binding was seen depends on the method and setting. For some of these results: In cells and extracts the contact can be indirect. Some binding calls cover weakened binding; strength is not graded here. For some of these results: Sequences can lack the tags named with a protein.

For “cell division protein FtsW (Rv2154c) of Mycobacterium tuberculosis, M-PFC fusion (from UniProt P9WN97 1-524)”, the binding result was “binds” in test [1]; “binds” in test [2]; “no binding” in [3]; “binds” in [4]; “binds” in test [5].

In the case of “cell division protein FtsQ (Rv2151c) of Mycobacterium tuberculosis, M-PFC fusion (from UniProt P9WNA1 1-314)”, the binding entry was “binds” in test [1]; “binds” in test [2]; “no binding” in [3]; “binds” in test [4]; “binds” in [5].

Take “Rv2147c (ortholog of SepF) of Mycobacterium tuberculosis, M-PFC fusion (from UniProt P9WGJ5 1-218)”: the binding result in test [1] is on record as “binds”; in test [2], “binds”; in test [3], “no binding”; in test [4] it was “binds”; in test [5] it was “binds”.

Take “product of Rv3818 (namH homologue) of Mycobacterium tuberculosis, M-PFC fusion (from UniProt P9WH21 1-516) (enzyme)”: the binding result in test [1] is on record as “binds”; in test [2], “no binding”; in test [4], “no binding”; in [5], “no binding”.

B1: purified recombinant M. tuberculosis MurC synthetase (enzyme, UniProt P9WJL7 1-494)
chain: T4 sequence
On to B1, for which, in test [6], the binding entry was “no binding”.

B2: cell division protein FtsZ (Rv2150c) of Mycobacterium tuberculosis, M-PFC fusion (protein, UniProt P9WN95 1-379)
chain: MTPPHNYLAVIKVVGIGGGGVNAVNRMIEQGLKGVEFIAINTDAQALLMSDADVKLDVGRDSTRGLGAGADPEVGRKAAEDAKDEIEELLRGADMVFVTAGEGGGTGTGGAPVVASIARKLGALTVGVVTRPFSFEGKRRSNQAENGIAALRESCDTLIVIPNDRLLQMGDAAVSLMDAFRSADEVLLNGVQGITDLITTPGLINVDFADVKGIMSGAGTALMGIGSARGEGRSLKAAEIAINSPLLEASMEGAQGVLMSIAGGSDLGLFEINEAASLVQDAAHPDANIIFGTVIDDSLGDEVRVTVIAAGFDVSGPGRKPVMGETGGAHRIESAKAGKLTSTLFEPVDAVSVPLHTNGATLSIGGDDDDVDVPPFMRR
Take B2: the binding entry in test [7] is reported as “binds”; in [8], “binds”; in test [9], “no binding”; in test [10], “binds”; in test [11], “binds”.

B3: Wag31 (Rv2145c), homologue of DivIVA, of Mycobacterium tuberculosis, M-PFC fusion (protein, UniProt P9WMU1 1-260)
chain: MPLTPADVHNVAFSKPPIGKRGYNEDEVDAFLDLVENELTRLIEENSDLRQRINELDQELAAGGGAGVTPQATQAIPAYEPEPGKPAPAAVSAGMNEEQALKAARVLSLAQDTADRLTNTAKAESDKMLADARANAEQILGEARHTADATVAEARQRADAMLADAQSRSEAQLRQAQEKADALQADAERKHSEIMGTINQQRAVLEGRLEQLRTFEREYRTRLKTYLESQLEELGQRGSAAPVDSNADAGGFDQFNRGKN
For B3, the binding entry in test [7] is recorded as “binds”; in [8] it was “binds”; in test [9], “no binding”; in test [10], “binds”; in test [11] it was “binds”.

B4: purified recombinant M. tuberculosis MurD synthetase (enzyme, UniProt P9WJL5 1-496)
chain: T5 sequence
For B4, the binding entry in test [12] was “no binding”.
